Test results: PubChem BioAssay (NCATS)
Several values for one entry are separate records, joined by “and”; a condition that tells them apart may be missing. Identical values can stand only once. The list shows a part of the results. The main result of the screen is listed elsewhere. These columns were measured beside it and carry no call. For some assays here: Most of these compounds were active or inconclusive in the main read-out, so they are no random draw. Potencies come from curve fits of mixed quality, noted in brackets.

Tests used:
[1] = biological target: Histamine N-methyltransferase (Homo sapiens) (UniProt P50135); assay: Confirmatory Screen for Target Class Profiling of Small Molecule Inhibitors of Methyltransferases (AID 1745852); settings: MTase-Glo luminescence, SAH detection, recombinant enzyme; measured here: HNMT inhibition potency;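 further: inhibitor potency for blocking SAH production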
[2] = qHTS drug screen for cell cycle checkpoint inhibitors in PARPi-resistant BRCA-mutant ovarian cancer cell lines. (AID 1963452); settings: PEO1/OlaR viability, CellTiter-Glo luminescence, 96 h
Summary of the method: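 PEO1, PEO4 and PEO1/OlaR ovarian cancer cells, 600 per well, exposed 96 h at 37C to a dilution series. Viability read by CellTiter-Glo luminescence, normalized to DMSO and empty wells; activity summarized as Z-AUC.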

[3] = qHTS for identification of novel therapeutic agents for treatment of microphthalmiaassociated transcription factor (MiT) renal cell carcinoma (RCC) (AID 1963991); settings: CellTiter-Glo, 48 h; for z-score: stronger effect = lower value
Summary of the method: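 Curves over 11 concentrations were fitted to CellTiter-Glo luminescence, scaled between empty wells (0%) and DMSO (100%) viability. Cells were UOK109, UOK124 and UOK145 TFE3-fusion RCC lines at 500/well, exposed 48 hours at 37 C.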

[4] = biological target: Nicotinamide N-methyltransferase (Homo sapiens) (UniProt P40261); assay: Confirmatory Screen for Target Class Profiling of Small Molecule Inhibitors of Methyltransferases (AID 1745852); settings: MTase-Glo luminescence, SAH detection, recombinant enzyme; measured here: NNMT inhibition potency;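 further: inhibitor potency for blocking SAH production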
[5] = NCATS anti-infectives library activity on the primary C. elegans qHTS viability assay (AID 1745855); settings: C. elegans worm area imaging, day 7, day 3
Summary of the method: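 Titration-based screen in worms: eggs hatched overnight in M9, L1 larvae fed TOP10 capsules in S medium with compound, incubated 21 °C for 7 days; fluorescent objects gated by size and intensity at days 0, 3 and 7.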

[6] = qHTS assay for small molecule antagonists of peroxisome proliferator-activated receptor gamma signaling (AID 588537); settings: HEK293 PPARg-UAS-bla, beta-lactamase ratio, antagonist mode; measured here: W460 blue channel
Summary of the method: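 Cell-based beta-lactamase assay; GW9662 served as the antagonist control. Stimulation used rosiglitazone, final 50 nM, 16 h, 37 C.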

[7] = biological target: Phenylethanolamine N-methyltransferase (Homo sapiens) (UniProt P11086); assay: Confirmatory Screen for Target Class Profiling of Small Molecule Inhibitors of Methyltransferases (AID 1745852); settings: MTase-Glo luminescence, SAH detection, recombinant enzyme; measured here: PNMT inhibition potency;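 further: inhibitor potency for blocking SAH production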
[8] = measured here: PEO1 parental viability
[9] = TFE3-RCC UOK109 viability, measured here: UOK109 Z-AUC
[10] = TFE3-RCC viability, measured here: UOK124 Z-AUC
[11] = TFE3-RCC viability, measured here: UOK124 cell viability
[12] = TFE3-RCC viability, measured here: UOK145 Z-AUC
[13] = TFE3-RCC viability, measured here: UOK145 cell viability
Tags describe the fitted curve by direction and shape.

UniProt P40261, sequence (P40261 whole entry, looked up): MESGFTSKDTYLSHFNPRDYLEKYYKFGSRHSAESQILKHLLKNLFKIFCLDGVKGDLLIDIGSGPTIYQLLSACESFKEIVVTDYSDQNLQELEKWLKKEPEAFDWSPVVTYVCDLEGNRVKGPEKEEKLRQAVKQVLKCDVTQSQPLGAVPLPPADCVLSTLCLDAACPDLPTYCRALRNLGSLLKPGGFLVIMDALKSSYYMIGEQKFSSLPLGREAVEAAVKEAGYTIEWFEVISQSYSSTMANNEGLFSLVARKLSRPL
UniProt P50135, sequence (P50135 whole entry, looked up): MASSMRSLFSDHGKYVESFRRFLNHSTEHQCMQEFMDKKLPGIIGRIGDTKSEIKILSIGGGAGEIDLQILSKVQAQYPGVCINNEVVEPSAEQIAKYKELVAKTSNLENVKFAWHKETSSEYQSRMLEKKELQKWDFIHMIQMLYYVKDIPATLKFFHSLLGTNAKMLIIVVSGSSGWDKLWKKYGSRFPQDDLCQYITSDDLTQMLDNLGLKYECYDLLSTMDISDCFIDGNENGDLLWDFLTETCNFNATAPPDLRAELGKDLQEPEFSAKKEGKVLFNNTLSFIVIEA
UniProt P11086, sequence (P11086 whole entry, looked up): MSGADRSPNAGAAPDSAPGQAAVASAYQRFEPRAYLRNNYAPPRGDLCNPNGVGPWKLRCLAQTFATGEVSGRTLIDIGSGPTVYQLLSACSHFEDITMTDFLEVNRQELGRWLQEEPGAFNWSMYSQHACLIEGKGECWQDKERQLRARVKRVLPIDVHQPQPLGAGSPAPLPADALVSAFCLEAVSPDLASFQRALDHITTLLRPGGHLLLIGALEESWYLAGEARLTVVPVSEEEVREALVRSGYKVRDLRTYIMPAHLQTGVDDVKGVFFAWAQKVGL

NC(=O)c1cccc2[nH]c(-c3ccc([C@@H]4CCCN4)cc3F)nc12
IC50 [1]: 19.2 µM [falling, partial curve] | AC50 [2, 8]: 11 µM [falling, partial curve, poor fit] | AC50 ([2]; measured here: PEO4 viability): 19.5 µM [falling, single point]

NC[C@@](O)(c1ccc(Cl)cc1)c1ccc(-c2cn[nH]c2)cc1
IC50 [1]: 12.1 µM [falling, partial curve] | AC50 [2, 8]: 15.5 µM [falling, partial curve] | AC50 ([2]; measured here: PEO4 viability): 8.71 µM [falling, partial curve]

COc1cc2c(Nc3ccc(Br)cc3F)ncnc2cc1OCC1CCN(C)CC1
IC50 [1]: 13.6 µM [falling, partial curve] | AC50 [2, 8]: 13.8 µM [falling, partial curve] | AC50 ([2]; measured here: PEO4 viability): 19.5 µM [falling, partial curve] | z-score [3, 9]: -2.42 | z-score [3, 10]: -0.631 | AC50 [3, 11]: 18.7 µM [falling, partial curve] | z-score [3, 12]: -1.71 | AC50 [3, 13]: 14.8 µM [falling, partial curve]

CC(=O)N(C)C1(c2ccccc2)CCN(CCC[C@]2(c3ccc(Cl)c(Cl)c3)CCCN(C(=O)c3ccccc3)C2)CC1
IC50 [1]: 24.1 µM [falling, partial curve, poor fit] | IC50 [4]: 19.2 µM [falling, partial curve] | z-score [3, 9]: 0.275 | z-score [3, 10]: 0.445 | AC50 [3, 11]: 20.9 µM [falling, partial curve] | z-score [3, 12]: -0.208 | AC50 [3, 13]: 26.4 µM [falling, single point]

O=C(c1ccc(Nc2nccc(-c3cc4ccccc4s3)n2)cc1)N1CCC(N2CCCC2)CC1
IC50 [1]: 17.1 µM [falling, partial curve] | z-score [3, 9]: -1.09 | z-score [3, 10]: -0.494 | AC50 [3, 11]: 7.43 µM [falling, full curve] | z-score [3, 12]: -0.924 | AC50 [3, 13]: 7.43 µM [falling, full curve]

COc1cc2c(NC3CCN(C(C)C)CC3)nc(C3CCCCC3)nc2cc1OCCCN1CCCC1
IC50 [1]: 7.64 µM [falling, partial curve] | IC50 [4]: 21.5 µM [falling, partial curve] | z-score [3, 9]: -0.205 | z-score [3, 10]: -2.01 | AC50 [3, 11]: 6.62 µM [falling, full curve] | z-score [3, 12]: -0.521 | AC50 [3, 13]: 9.35 µM [falling, partial curve]

Cc1ccc2c(c1)c1c(n2CCc2ccc(C)nc2)CCN(C)C1
IC50 [1]: 21.5 µM [falling, partial curve] | z-score [3, 9]: 0.257 | z-score [3, 10]: 0.344 | z-score [3, 12]: 0.122

O=C(/C=C/c1ccc(CN(CCO)CCc2c[nH]c3ccccc23)cc1)NO
IC50 [1]: 13.7 µM [falling, partial curve] | AC50 ([5]; measured here: worm number): 91.6 nM [falling, full curve, poor fit] | AC50 [2, 8]: 0.389 µM [falling, full curve] | AC50 ([2]; measured here: PEO4 viability): 0.389 µM [falling, full curve]

CC(C)(C)CC(C)(C)c1ccc(OCCOCC[N+](C)(C)Cc2ccccc2)cc1
AC50 [6]: 44.7 µM [rising, single point] and 50.1 µM [falling, single point] | IC50 [1]: 19.2 µM [falling, partial curve] | IC50 [4]: 21.5 µM [falling, partial curve]

NC1(Cc2ccc(Cl)cc2)CCN(c2ncnc3[nH]ccc23)CC1
IC50 [1]: 10.8 µM [falling, partial curve] | IC50 [7]: 24.1 µM [falling, partial curve] | AC50 [2, 8]: 17.4 µM [falling, single point] | AC50 ([2]; measured here: PEO4 viability): 15.5 µM [falling, partial curve] | z-score [3, 9]: 0.588 | z-score [3, 10]: 0.563 | AC50 [3, 11]: 18.7 µM [falling, partial curve] | z-score [3, 12]: -0.407 | AC50 [3, 13]: 18.7 µM [falling, partial curve]

CC(C)c1cc(CNc2nc(Nc3cc(C4CC4)[nH]n3)cc(N3CCN(C)CC3)n2)on1
IC50 [1]: 17.1 µM [falling, partial curve] | AC50 [2, 8]: 1.38 µM [falling, full curve] | AC50 ([2]; measured here: PEO4 viability): 0.219 µM [falling, full curve]

CN1CCc2c(n(Cc3ccc(C(=O)NO)cc3)c3ccccc23)C1
IC50 [1]: 8.57 µM [falling, partial curve] | z-score [3, 9]: 0.383 | z-score [3, 10]: -0.528 | AC50 [3, 11]: 20.9 µM [falling, partial curve] | z-score [3, 12]: 0.211 | AC50 [3, 13]: 26.4 µM [falling, single point]

COc1ccc2c(Oc3ccc(NC(=O)c4c(C)n(CC(C)(C)O)n(-c5ccccc5)c4=O)cc3F)ccnc2c1
IC50 [1]: 6.07 µM [falling, full curve] | AC50 [2, 8]: 19.5 µM [falling, partial curve] | AC50 ([2]; measured here: PEO4 viability): 19.5 µM [falling, single point] | z-score [3, 9]: 0.0821 | z-score [3, 10]: 0.122 | AC50 [3, 11]: 26.4 µM [falling, single point] | z-score [3, 12]: -1.18 | AC50 [3, 13]: 29.6 µM [falling, single point]

Cn1ccc(Nc2cc3c(cn2)CN(CCc2ccccc2)CCN3)n1
IC50 [1]: 1.97 µM [falling, full curve] | IC50 [7]: 31.2 µM [falling, partial curve]

c1cc(OCCN2CCCCC2)cc(-c2n[nH]c3ccc(-c4ncn[nH]4)cc23)c1
IC50 [1]: 19.2 µM [falling, partial curve] | z-score [3, 9]: 0.272 | z-score [3, 10]: 0.358 | z-score [3, 12]: 0.409 | AC50 [3, 13]: 37.2 µM [falling, partial curve, poor fit]

CCN1CCN(Cc2ccc(NC(=O)Nc3ccc(Oc4cc(NC)ncn4)cc3)cc2C(F)(F)F)CC1
IC50 [1]: 6.07 µM [falling, full curve] | AC50 [2, 8]: 3.09 µM [falling, full curve] | AC50 ([2]; measured here: PEO4 viability): 3.09 µM [falling, full curve]

CCN(CC)Cc1ccc2cc(COC(=O)Nc3ccc(C(=O)NO)cc3)ccc2c1
IC50 [1]: 24.1 µM [falling, partial curve] | AC50 [2, 8]: 1.55 µM [falling, full curve] | AC50 ([2]; measured here: PEO4 viability): 1.23 µM [falling, full curve] | z-score [3, 9]: -0.906 | z-score [3, 10]: -3.37 | AC50 [3, 11]: 1.66 µM [falling, full curve] | z-score [3, 12]: -0.729 | AC50 [3, 13]: 5.9 µM [falling, partial curve]

COc1ccc(-c2cc3c(cn2)CN(CCc2ccccc2)CCN3)cc1OC
IC50 [1]: 15.6 µM [falling, partial curve] | IC50 [7]: 31.2 µM [falling, partial curve]

Clc1ccc(C2(c3ccc(-c4cn[nH]c4)cc3)CCNCC2)cc1
IC50 [1]: 0.482 µM [falling, full curve] | AC50 [2, 8]: 17.4 µM [falling, single point] | AC50 ([2]; measured here: PEO4 viability): 12.3 µM [falling, partial curve] | z-score [3, 9]: 1.03 | z-score [3, 10]: -2.48 | AC50 [3, 11]: 23.5 µM [falling, partial curve] | z-score [3, 12]: -1.06 | AC50 [3, 13]: 26.4 µM [falling, single point]

Cn1cc(-c2cnn3c(N)c(Br)c([C@H]4CCCNC4)nc23)cn1
IC50 [1]: 7.64 µM [falling, partial curve] | IC50 [7]: 15.2 µM [falling, partial curve] | AC50 [2, 8]: 21.9 µM [falling, single point] and 1.55 µM [falling, partial curve, poor fit] | AC50 ([2]; measured here: PEO4 viability): 15.5 µM [falling, partial curve] | z-score [3, 9]: 0.0336 | z-score [3, 10]: -0.636 | AC50 [3, 11]: 0.264 µM [falling, full curve, poor fit] | z-score [3, 12]: -0.466 | AC50 [3, 13]: 4.18 µM [falling, partial curve]

COc1cc(NC(=O)Nc2cccc(CNC(=O)O[C@H]3CCOC3)c2)ccc1-c1cnco1
IC50 [1]: 10.8 µM [falling, partial curve] | AC50 ([5]; measured here: worm area): 325 nM [falling, full curve, poor fit]

Cc1nc(Nc2n[nH]c3c2CN(C(=O)N[C@H](CN(C)C)c2ccccc2)C3(C)C)c2sccc2n1
IC50 [1]: 19.2 µM [falling, partial curve] | AC50 [2, 8]: 1.55 µM [falling, full curve] | AC50 ([2]; measured here: PEO4 viability): 1.74 µM [falling, full curve, poor fit] | z-score [3, 9]: -1.35 | z-score [3, 10]: -0.702 | AC50 [3, 11]: 5.26 µM [falling, partial curve] | z-score [3, 12]: -1.07 | AC50 [3, 13]: 6.62 µM [falling, partial curve]

Cc1[nH]c2ccccc2c1CCNCc1ccc(/C=C/C(=O)NO)cc1
IC50 [1]: 12.2 µM [falling, partial curve] | AC50 [2, 8]: 0.195 µM [falling, full curve] | AC50 ([2]; measured here: PEO4 viability): 0.174 µM [falling, full curve]

Nc1nc(Nc2ccc3c(c2)CC[C@@H](N2CCCC2)CC3)nn1-c1cc2c(nn1)-c1ccccc1CCC2
IC50 [1]: 6.81 µM [falling, full curve] | AC50 [2, 8]: 12.3 µM [falling, partial curve] | AC50 ([2]; measured here: PEO4 viability): 9.77 µM [falling, partial curve]

COCCOc1ccc2c(c1)ncn2-c1ccc2cccc(N3CCC(N)CC3)c2n1
IC50 [1]: 21.5 µM [falling, partial curve] | AC50 [2, 8]: 15.5 µM [falling, single point] | AC50 ([2]; measured here: PEO4 viability): 24.5 µM [falling, single point] | z-score [3, 9]: -0.27 | z-score [3, 10]: 0.495 | AC50 [3, 11]: 23.5 µM [falling, partial curve] | z-score [3, 12]: -0.68 | AC50 [3, 13]: 16.6 µM [falling, partial curve]

CN1CCc2c(c3ccccc3n2Cc2ccc(C(=O)NO)cc2)C1
IC50 [1]: 15.2 µM [falling, partial curve] | AC50 [2, 8]: 24.5 µM [falling, single point] | AC50 ([2]; measured here: PEO4 viability): 19.5 µM [falling, partial curve, poor fit] | z-score [3, 9]: -0.419 | z-score [3, 10]: 0.0836 | AC50 [3, 11]: 20.9 µM [falling, partial curve] | z-score [3, 12]: -0.265 | AC50 [3, 13]: 33.2 µM [falling, single point]
